This list was built around the results that the source calls inconclusive (neither active nor inactive); the mix of calls is not that of the screen. For some of these results: Potencies of inconclusive entries are left out as doubtful fits. More than one record can exist for a structure, and the calls need not agree. Calls of active or inactive are those of the source. Calls come from the whole dose curve; as a rule, active = well fitted curve in the direction sought with a large enough effect in the repeat runs; inconclusive = weak or mixed curves; inactive = no such curve, though single readings can be large; an effect the other way counts as inactive or inconclusive.
Legend:
[1] = qHTS RealTime-Glo MT Cell Viability Assay in HepG2 cells - 24 hour (AID 1224867); conditions: RealTime-Glo luminescence; series mostly up to 76.8 µM; note: nearly all actives have a fitted effect of over 50% in size
Outline: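 HepG2 suspension premixed with RealTime-Glo reagents is plated at 600 cells per well and left 5 h at 37 C/5% CO2. Compounds in DMSO then go in, and bioluminescence reflecting viable cell number is recorded over 40 h.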

[2] = qHTS RealTime-Glo MT Cell Viability Assay in HepG2 cells - 40 hour (AID 1224870); conditions: RealTime-Glo luminescence; series mostly up to 76.8 µM; note: nearly all actives have a fitted effect of over 50% in size
Outline: (§1)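 HepG2 cells mixed with RealTime-Glo MT reagents (NanoLuc plus cell-permeant prosubstrate) were seeded at 600 cells/well, incubated 5 h at 37 C/5% CO2, then pinned with compounds in DMSO; nonlytic luminescence tracked viability during 40 h treatment.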

[3] = qHTS RealTime-Glo MT Cell Viability Assay in HEK293 cells - 16 hour (AID 1224872); conditions: RealTime-Glo luminescence; series mostly up to 76.8 µM; note: nearly all actives have a fitted effect of over 50% in size
Outline: (§2)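 Reads taken at 0, 8, 16, 24, 32 and 40 h from the same wells. HEK293 cells (600/well) carried RealTime-Glo reagents from seeding, with compound added after a 5 h settle at 37 C.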

[4] = A CellTox Green Cytotoxicity Assay to monitor cytotoxicity in HEK293 cells - 40 hour (AID 1224871); conditions: CellTox Green fluorescence; series mostly up to 76.8 µM; note: nearly all actives have a fitted effect of over 45% in size
Outline: (§3)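 Seeding of HEK293 cells together with cytotoxicity dye preceded a 5 h incubation at 37 C/5% CO2. Test compounds in DMSO were then added and fluorescence monitored across 40 h.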

[5] = qHTS RealTime-Glo MT Cell Viability Assay in HepG2 cells - 8 hour (AID 1224873); conditions: RealTime-Glo luminescence; series mostly up to 76.8 µM; note: nearly all actives have a fitted effect of over 55% in size
Outline: as §1

[6] = A CellTox Green Cytotoxicity Assay to monitor cytotoxicity in HEK293 cells - 24 hour (AID 1224875); conditions: CellTox Green fluorescence; series mostly up to 76.8 µM; note: nearly all actives have a fitted effect of over 45% in size
Outline: as §3

[7] = qHTS RealTime-Glo MT Cell Viability Assay in HEK293 cells - 32 hour (AID 1224868); conditions: RealTime-Glo luminescence; series mostly up to 76.8 µM; note: nearly all actives have a fitted effect of over 50% in size
Outline: as §2
Potency is the fitted concentration of half-maximal effect; tags give direction and shape of the fitted curve.

| Compound | Potency [1] | Potency [2] | Potency [3] | Potency [4] | Potency [5] | Potency [6] | Potency [7] |
| --- | --- | --- | --- | --- | --- | --- | --- |
| COc1cc(C=O)cc2c1[C@H](COC(N)=O)[C@]1(OC(C)=O)ON2C[C@H]2[C@@H]1N2C(C)=O | inconclusive [falling, full curve] | inconclusive [falling, full curve] | inconclusive [cytotoxic, full curve] | – | – | – | – |
| Cc1cc(C2CC2)nc(Nc2ccccc2)n1 | inconclusive [falling, partial curve, poor fit] | – | – | inconclusive [activator, single point] | inconclusive [falling, single point] | – | – |
| COc1ccc(Cc2nccc3cc(OC)c(OC)cc23)cc1OC | inconclusive [falling, partial curve] | – | active: 4.77 µM | – | active: 10.7 µM | – | – |
| CCCC[n+]1ccc(C)cc1 | inconclusive [falling, single point] | inconclusive [falling, single point] | inconclusive [rising, partial curve] | inconclusive [activator, partial curve, poor fit] | inconclusive [falling, partial curve] | inconclusive [activator, single point] | – |
| CCC(C)(NC(=O)c1cc(Cl)c(C)c(Cl)c1)C(=O)CCl (centres undefined) | active: 49.3 µM | – | – | – | inconclusive [falling, partial curve] | inconclusive [activator, partial curve, poor fit] | active: 19.6 µM |

— PubChem BioAssay (Tox21)
